# Some of the results follow. The full chains were built here from the parent and the listed change. Inactive controls read about 0.05.
# B1: TEV protease; numbered along this chain (parent)
# chain: MGESLFKGPRDYNPISSSICHLTNESDGHTTSLYGIGFGPFIITNKHLFRRNNGTLVVQSLHGVFKVKDTTTLQQHLVDGRDMIIIRMPKDFPPFPQKLKFREPQREERICLVTTNFQTKSMSSMVSDTSCTFPSGDGIFWKHWIQTKDGQCGSPLVSTRDGFIVGIHSASNFTNTNNYFTSVPKNFMELLTNQEAQQWVSGWRLNADSVLWGGHKVFMVKPEEPFQPVKEATQL
# Variants of: B1
# Test: raw area under fraction-flipped curve 0-4 h after induction (AUC4h, not background-subtracted), DNA-recorder readout of cleavage of the substrate (dimensionless); higher = more cleavage of the substrate by the protease variant
# Conditions: temperature: 34 °C; time window: 0-4 h after rhamnose induction
# Method: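 In vivo DNA recorder in E. coli TOP10(DE3) ΔrhaA at 34 °C. Each TEVp single-site mutant (parent TEVp 0) is paired with a single-site variant of the 7-mer TEVs (canonical ENLYFQ|S). The substrate sits between flexible linkers in a Bxb1-sfGFP-TEVs-SsrA fusion, so cleavage stabilises Bxb1 and speeds flipping of a recombination array, read by NGS. The value is the raw area under the fraction-flipped curve over 0-4 h after rhamnose induction (AUC4h), with ≥20 reads per time point. It is not background-subtracted; inactive controls average about 0.047.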
# 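Further: Bxb1 expression induced with 0.2% (w/v) L-rhamnose at OD600 near 0.5, cultures sampled hourly, flipped fraction per protease–substrate barcode pair counted by paired-end Illumina sequencing.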
Variant,area with substrate ECLYFQS,area with substrate EDLYFQS,area with substrate EELYFQS,area with substrate EFLYFQS,area with substrate EHLYFQS,area with substrate EILYFQS,area with substrate EKLYFQS,area with substrate ELLYFQS,area with substrate EMLYFQS,area with substrate ERLYFQS,area with substrate ESLYFQS,area with substrate EVLYFQS,area with substrate EWLYFQS,area with substrate EYLYFQS,area with substrate EGLYFQS,area with substrate EPLYFQS,area with substrate EQLYFQS,area with substrate ETLYFQS
MGESLFKGPRDYNPISSSICHLTNESDGHTTSLYGIGFGPFIITFKHLFRRNNGTLVVQSLHGVFKVKDTTTLQQHLVDGRDMIIIRMPKDFPPFPQKLKFREPQREERICLVTTNFQTKSMSSMVSDTSCTFPSGDGIFWKHWIQTKDGQCGSPLVSTRDGFIVGIHSASNFTNTNNYFTSVPKNFMELLTNQEAQQWVSGWRLNADSVLWGGHKVFMVKPEEPFQPVKEATQL [N45F],0.0657,0.0625,0.0638,0.0703,0.0334,0.0638,0.0721,0.0605,0.064,0.0528,0.0559,0.0627,0.0598,0.0444,,,,
MGESLFKGPRDYNPISSSICHLTNESDGHTTSLYGIGFGPFIITMKHLFRRNNGTLVVQSLHGVFKVKDTTTLQQHLVDGRDMIIIRMPKDFPPFPQKLKFREPQREERICLVTTNFQTKSMSSMVSDTSCTFPSGDGIFWKHWIQTKDGQCGSPLVSTRDGFIVGIHSASNFTNTNNYFTSVPKNFMELLTNQEAQQWVSGWRLNADSVLWGGHKVFMVKPEEPFQPVKEATQL [N45M],0.0314,0.0664,0.0721,0.0785,0.0945,0.0562,0.0701,0.0604,0.0536,0.0489,0.0641,0.064,0.0582,,0.0543,0.0706,0.0621,0.0616
MGESLFKGPRDYNPISSSICHLTNESDGHTTSLYGIGFGPFIITCKHLFRRNNGTLVVQSLHGVFKVKDTTTLQQHLVDGRDMIIIRMPKDFPPFPQKLKFREPQREERICLVTTNFQTKSMSSMVSDTSCTFPSGDGIFWKHWIQTKDGQCGSPLVSTRDGFIVGIHSASNFTNTNNYFTSVPKNFMELLTNQEAQQWVSGWRLNADSVLWGGHKVFMVKPEEPFQPVKEATQL [N45C],0.118,0.119,0.14,,0.096,,,0.113,0.123,0.127,0.105,0.0932,0.105,,,0.117,,
MGESLFKGPRDYNPISSSICHLTNESDGHTTSLYGIGFGPFIITRKHLFRRNNGTLVVQSLHGVFKVKDTTTLQQHLVDGRDMIIIRMPKDFPPFPQKLKFREPQREERICLVTTNFQTKSMSSMVSDTSCTFPSGDGIFWKHWIQTKDGQCGSPLVSTRDGFIVGIHSASNFTNTNNYFTSVPKNFMELLTNQEAQQWVSGWRLNADSVLWGGHKVFMVKPEEPFQPVKEATQL [N45R],0.0633,0.0651,0.0568,,0.0582,0.0571,0.0639,0.0691,0.0603,0.0704,0.0611,0.0519,0.039,0.0504,0.0586,0.0569,0.0577,
MGESLFKGPRDYNPISSSICHLTNESDGHTTSLYGIGFGPFIGTNKHLFRRNNGTLVVQSLHGVFKVKDTTTLQQHLVDGRDMIIIRMPKDFPPFPQKLKFREPQREERICLVTTNFQTKSMSSMVSDTSCTFPSGDGIFWKHWIQTKDGQCGSPLVSTRDGFIVGIHSASNFTNTNNYFTSVPKNFMELLTNQEAQQWVSGWRLNADSVLWGGHKVFMVKPEEPFQPVKEATQL [I43G],0.0485,0.0485,,0.055,,0.0505,0.0587,0.0461,0.0545,0.0636,0.064,0.0449,0.0455,,0.0591,0.0279,0.0593,
MGESLFKGPRDYNPISSSICHLTNESDGHTTSLYGIGFGPFIFTNKHLFRRNNGTLVVQSLHGVFKVKDTTTLQQHLVDGRDMIIIRMPKDFPPFPQKLKFREPQREERICLVTTNFQTKSMSSMVSDTSCTFPSGDGIFWKHWIQTKDGQCGSPLVSTRDGFIVGIHSASNFTNTNNYFTSVPKNFMELLTNQEAQQWVSGWRLNADSVLWGGHKVFMVKPEEPFQPVKEATQL [I43F],0.0848,0.0993,,0.0677,0.0815,0.071,0.0784,0.0743,0.0805,0.0757,0.0768,0.0838,0.0654,0.0671,0.084,0.101,0.0717,0.086
MGESLFKGPRDYNPISSSICHLTNESDGHTTSLYGIGFTPFIITNKHLFRRNNGTLVVQSLHGVFKVKDTTTLQQHLVDGRDMIIIRMPKDFPPFPQKLKFREPQREERICLVTTNFQTKSMSSMVSDTSCTFPSGDGIFWKHWIQTKDGQCGSPLVSTRDGFIVGIHSASNFTNTNNYFTSVPKNFMELLTNQEAQQWVSGWRLNADSVLWGGHKVFMVKPEEPFQPVKEATQL [G39T],0.1,0.0286,0.0336,0.0382,,0.047,0.04,0.0492,0.0411,0.0332,0.0345,0.0538,0.0948,,0.0514,0.0561,0.0508,
MGESLFKGPRDYNPISSSICHLTNESDGHTTSLYGIGFGPFIITNKHLFERNNGTLVVQSLHGVFKVKDTTTLQQHLVDGRDMIIIRMPKDFPPFPQKLKFREPQREERICLVTTNFQTKSMSSMVSDTSCTFPSGDGIFWKHWIQTKDGQCGSPLVSTRDGFIVGIHSASNFTNTNNYFTSVPKNFMELLTNQEAQQWVSGWRLNADSVLWGGHKVFMVKPEEPFQPVKEATQL [R50E],0.0896,0.132,0.124,,,,0.0867,0.0831,0.104,0.0808,,0.0854,,0.0822,0.0519,,0.0975,0.117
MGESLFKGPRDYNPISSSICHLTNESDGHTTSLYGIGFGPFIITNVHLFRRNNGTLVVQSLHGVFKVKDTTTLQQHLVDGRDMIIIRMPKDFPPFPQKLKFREPQREERICLVTTNFQTKSMSSMVSDTSCTFPSGDGIFWKHWIQTKDGQCGSPLVSTRDGFIVGIHSASNFTNTNNYFTSVPKNFMELLTNQEAQQWVSGWRLNADSVLWGGHKVFMVKPEEPFQPVKEATQL [K46V],0.0571,0.102,,,0.0759,,0.0542,0.0784,0.123,0.0771,0.0749,0.0632,,0.0787,0.0635,,0.0839,0.0646

# Source: the supplement of paper PMC12217912
